From patent publication US20250304706A1 (Astellas, published 2025)

B1: BTE-0115 (bispecific antibody)
chain 1: QVQLVESGGGVVQPGGSLRLSCAASGFTFSSYGMHWVRQAPGKGLEWVAVIWYDGRNKYYADSVKGRFTISRDNSKNTLYLQMNSLRAEDTAVYYCTRDHSGSGSYYIDYWGQGTLVTVSSASTKGPSVFPLAPSSKSTSGGTAALGCLVKDYFPEPVTVSWNSGALTSGVHTFPAVLQSSGLYSLSSVVTVPSSSLGTQTYICNVNHKPSNTKVDKKVEPKSCDKTHTCPPCPAPEAAGGPSVFLFPPKPKDTLMISRTPEVTCVVVDVSHEDPEVKFNWYVDGVEVHNAKTKPREEQYNSTYRVVSVLTVLHQDWLNGKEYKCKVSNKALAAPIEKTISKAKGQPREPQVYTLPPSRDELTKNQVSLSCAVKGFYPSDIAVEWESNGQPENNYKTTPPVLDSDGSFFLVSKLTVDKSRWQQGNVFSCSVMHEALHNHYTQKSLSLSPGK
chain 2: EIAMTQSPATLSVSPGERATLSCRASQSVSSNLAWYQQKPGQAPRLLIYGASTRATGLPARFSGSGSGTEFTLTISSLQSEDFAVYYCQQYNNFWTFGQGTKVEIKRTVAAPSVFIFPPSDEQLKSGTASVVCLLNNFYPREAKVQWKVDNALQSGNSQESVTEQDSKDSTYSLSSTLTLSKADYEKHKVYACEVTHQGLSSPVTKSFNRGEC
chain 3: EVQLVESGGGLIQPGGSLRLSCAASGFTFNTYAMSWVRQAPGKGLEWVARIRSKYNNYATYYADSVKDRFTISRDDSKSTLYLQMNNLRAEDTAVYYCVRHGNFGNSYVSWFAYWGQGTLVTVSSGKPGSGKPGSGKPGSGKPGSQAVVTQEPSLTVSPGGTVTLTCRSSTGAVTTSNYANWVQQKPGQAPRGLIGGTNKRAPGTPARFSGSLLGDKAALTLSGAQPEDEAEYYCALWYSNHWVFGGGTKVTVL[human IgG1 Fc with C220S L234A L235A P329A T366W (EU numbers) cut from this listing]
B2: BTE-0117 (bispecific antibody)
chain 1: QVQLVESGGGVVQPGGSLRLSCAASGFTFSSYGMHWVRQAPGKGLEWVAVIWYDGRNKYYADSVKGRFTISRDNSKNTLYLQMNSLRAEDTAVYYCTRDHSGSGSYYIDYWGQGTLVTVSSASTKGPSVFPLAPSSKSTSGGTAALGCLVKDYFPEPVTVSWNSGALTSGVHTFPAVLQSSGLYSLSSVVTVPSSSLGTQTYICNVNHKPSNTKVDKKVEPKSCDKTHTCPPCPAPEAAGGPSVFLFPPKPKDTLMISRTPEVTCVVVDVSHEDPEVKFNWYVDGVEVHNAKTKPREEQYNSTYRVVSVLTVLHQDWLNGKEYKCKVSNKALAAPIEKTISKAKGQPREPQVYTLPPSRDELTKNQVSLSCAVKGFYPSDIAVEWESNGQPENNYKTTPPVLDSDGSFFLVSKLTVDKSRWQQGNVFSCSVMHEALHNHYTQKSLSLSPGK
chain 2: EIAMTQSPATLSVSPGERATLSCRASQSVSSNLAWYQQKPGQAPRLLIYGASTRATGLPARFSGSGSGTEFTLTISSLQSEDFAVYYCQQYNNFWTFGQGTKVEIKRTVAAPSVFIFPPSDEQLKSGTASVVCLLNNFYPREAKVQWKVDNALQSGNSQESVTEQDSKDSTYSLSSTLTLSKADYEKHKVYACEVTHQGLSSPVTKSFNRGEC
chain 3: EVQLVESGGGLIQPGGSLRLSCAASGFTFNTYAMAWVRQAPGKGLEWVARIRSKYNNYATYYADSVKDRFTISRDDSKSTLYLQMNNLRAEDTAVYYCVRHGNFGNSYVSWFAYWGQGTLVTVSSGKPGSGKPGSGKPGSGKPGSQAVVTQEPSLTVSPGGTVTLTCRSSTGAVTTSNYANWVQQKPGQAPRGLIGGTNKRAPGTPARFSGSLLGDKAALTLSGAQPEDEAEYYCALWYSNHWVFGGGTKVTVL[human IgG1 Fc with C220S L234A L235A P329A T366W (EU numbers) cut from this listing]
B3: BTE-0119 (bispecific antibody)
chain 1: QVQLVESGGGVVQPGGSLRLSCAASGFTFSSYGMHWVRQAPGKGLEWVAVIWYDGRNKYYADSVKGRFTISRDNSKNTLYLQMNSLRAEDTAVYYCTRDHSGSGSYYIDYWGQGTLVTVSSASTKGPSVFPLAPSSKSTSGGTAALGCLVKDYFPEPVTVSWNSGALTSGVHTFPAVLQSSGLYSLSSVVTVPSSSLGTQTYICNVNHKPSNTKVDKKVEPKSCDKTHTCPPCPAPEAAGGPSVFLFPPKPKDTLMISRTPEVTCVVVDVSHEDPEVKFNWYVDGVEVHNAKTKPREEQYNSTYRVVSVLTVLHQDWLNGKEYKCKVSNKALAAPIEKTISKAKGQPREPQVYTLPPSRDELTKNQVSLSCAVKGFYPSDIAVEWESNGQPENNYKTTPPVLDSDGSFFLVSKLTVDKSRWQQGNVFSCSVMHEALHNHYTQKSLSLSPGK
chain 2: EIAMTQSPATLSVSPGERATLSCRASQSVSSNLAWYQQKPGQAPRLLIYGASTRATGLPARFSGSGSGTEFTLTISSLQSEDFAVYYCQQYNNFWTFGQGTKVEIKRTVAAPSVFIFPPSDEQLKSGTASVVCLLNNFYPREAKVQWKVDNALQSGNSQESVTEQDSKDSTYSLSSTLTLSKADYEKHKVYACEVTHQGLSSPVTKSFNRGEC
chain 3: EVQLVESGGGLIQPGGSLRLSCAASGFTFNTYAMNWVRQAPGKGLEWVARIRSKANNYATYYADSVKDRFTISRDDSKSTLYLQMNNLRAEDTAVYYCVRHGNFGNSYVSWFAYWGQGTLVTVSSGKPGSGKPGSGKPGSGKPGSQAVVTQEPSLTVSPGGTVTLTCRSSTGAVTTSNYANWVQQKPGQAPRGLIGGTNKRAPGTPARFSGSLLGDKAALTLSGAQPEDEAEYYCALWYSNHWVFGGGTKVTVL[human IgG1 Fc with C220S L234A L235A P329A T366W (EU numbers) cut from this listing]
B4: BTE-0120 (bispecific antibody)
chain 1: QVQLVESGGGVVQPGGSLRLSCAASGFTFSSYGMHWVRQAPGKGLEWVAVIWYDGRNKYYADSVKGRFTISRDNSKNTLYLQMNSLRAEDTAVYYCTRDHSGSGSYYIDYWGQGTLVTVSSASTKGPSVFPLAPSSKSTSGGTAALGCLVKDYFPEPVTVSWNSGALTSGVHTFPAVLQSSGLYSLSSVVTVPSSSLGTQTYICNVNHKPSNTKVDKKVEPKSCDKTHTCPPCPAPEAAGGPSVFLFPPKPKDTLMISRTPEVTCVVVDVSHEDPEVKFNWYVDGVEVHNAKTKPREEQYNSTYRVVSVLTVLHQDWLNGKEYKCKVSNKALAAPIEKTISKAKGQPREPQVYTLPPSRDELTKNQVSLSCAVKGFYPSDIAVEWESNGQPENNYKTTPPVLDSDGSFFLVSKLTVDKSRWQQGNVFSCSVMHEALHNHYTQKSLSLSPGK
chain 2: EIAMTQSPATLSVSPGERATLSCRASQSVSSNLAWYQQKPGQAPRLLIYGASTRATGLPARFSGSGSGTEFTLTISSLQSEDFAVYYCQQYNNFWTFGQGTKVEIKRTVAAPSVFIFPPSDEQLKSGTASVVCLLNNFYPREAKVQWKVDNALQSGNSQESVTEQDSKDSTYSLSSTLTLSKADYEKHKVYACEVTHQGLSSPVTKSFNRGEC
chain 3: EVQLVESGGGLIQPGGSLRLSCAASGFTFNTYAMNWVRQAPGKGLEWVARIRSKYNNYATEYADSVKDRFTISRDDSKSTLYLQMNNLRAEDTAVYYCVRHGNFGNSYVSWFAYWGQGTLVTVSSGKPGSGKPGSGKPGSGKPGSQAVVTQEPSLTVSPGGTVTLTCRSSTGAVTTSNYANWVQQKPGQAPRGLIGGTNKRAPGTPARFSGSLLGDKAALTLSGAQPEDEAEYYCALWYSNHWVFGGGTKVTVL[human IgG1 Fc with C220S L234A L235A P329A T366W (EU numbers) cut from this listing]
B5: BTE-0121 (bispecific antibody)
chain 1: QVQLVESGGGVVQPGGSLRLSCAASGFTFSSYGMHWVRQAPGKGLEWVAVIWYDGRNKYYADSVKGRFTISRDNSKNTLYLQMNSLRAEDTAVYYCTRDHSGSGSYYIDYWGQGTLVTVSSASTKGPSVFPLAPSSKSTSGGTAALGCLVKDYFPEPVTVSWNSGALTSGVHTFPAVLQSSGLYSLSSVVTVPSSSLGTQTYICNVNHKPSNTKVDKKVEPKSCDKTHTCPPCPAPEAAGGPSVFLFPPKPKDTLMISRTPEVTCVVVDVSHEDPEVKFNWYVDGVEVHNAKTKPREEQYNSTYRVVSVLTVLHQDWLNGKEYKCKVSNKALAAPIEKTISKAKGQPREPQVYTLPPSRDELTKNQVSLSCAVKGFYPSDIAVEWESNGQPENNYKTTPPVLDSDGSFFLVSKLTVDKSRWQQGNVFSCSVMHEALHNHYTQKSLSLSPGK
chain 2: EIAMTQSPATLSVSPGERATLSCRASQSVSSNLAWYQQKPGQAPRLLIYGASTRATGLPARFSGSGSGTEFTLTISSLQSEDFAVYYCQQYNNFWTFGQGTKVEIKRTVAAPSVFIFPPSDEQLKSGTASVVCLLNNFYPREAKVQWKVDNALQSGNSQESVTEQDSKDSTYSLSSTLTLSKADYEKHKVYACEVTHQGLSSPVTKSFNRGEC
chain 3: EVQLVESGGGLIQPGGSLRLSCAASGFTFNTYAMNWVRQAPGKGLEWVARIRSKYNNYATSYADSVKDRFTISRDDSKSTLYLQMNNLRAEDTAVYYCVRHGNFGNSYVSWFAYWGQGTLVTVSSGKPGSGKPGSGKPGSGKPGSQAVVTQEPSLTVSPGGTVTLTCRSSTGAVTTSNYANWVQQKPGQAPRGLIGGTNKRAPGTPARFSGSLLGDKAALTLSGAQPEDEAEYYCALWYSNHWVFGGGTKVTVL[human IgG1 Fc with C220S L234A L235A P329A T366W (EU numbers) cut from this listing]
B6: BTE-0122 (bispecific antibody)
chain 1: QVQLVESGGGVVQPGGSLRLSCAASGFTFSSYGMHWVRQAPGKGLEWVAVIWYDGRNKYYADSVKGRFTISRDNSKNTLYLQMNSLRAEDTAVYYCTRDHSGSGSYYIDYWGQGTLVTVSSASTKGPSVFPLAPSSKSTSGGTAALGCLVKDYFPEPVTVSWNSGALTSGVHTFPAVLQSSGLYSLSSVVTVPSSSLGTQTYICNVNHKPSNTKVDKKVEPKSCDKTHTCPPCPAPEAAGGPSVFLFPPKPKDTLMISRTPEVTCVVVDVSHEDPEVKFNWYVDGVEVHNAKTKPREEQYNSTYRVVSVLTVLHQDWLNGKEYKCKVSNKALAAPIEKTISKAKGQPREPQVYTLPPSRDELTKNQVSLSCAVKGFYPSDIAVEWESNGQPENNYKTTPPVLDSDGSFFLVSKLTVDKSRWQQGNVFSCSVMHEALHNHYTQKSLSLSPGK
chain 2: EIAMTQSPATLSVSPGERATLSCRASQSVSSNLAWYQQKPGQAPRLLIYGASTRATGLPARFSGSGSGTEFTLTISSLQSEDFAVYYCQQYNNFWTFGQGTKVEIKRTVAAPSVFIFPPSDEQLKSGTASVVCLLNNFYPREAKVQWKVDNALQSGNSQESVTEQDSKDSTYSLSSTLTLSKADYEKHKVYACEVTHQGLSSPVTKSFNRGEC
chain 3: EVQLVESGGGLIQPGGSLRLSCAASGFTFNTYAMNWVRQAPGKGLEWVARIRSKYNNYATYYADSVKDRFTISRDDSKSTLYLQMNNLRAEDTAVYYCVRHGNFGNEYVSWFAYWGQGTLVTVSSGKPGSGKPGSGKPGSGKPGSQAVVTQEPSLTVSPGGTVTLTCRSSTGAVTTSNYANWVQQKPGQAPRGLIGGTNKRAPGTPARFSGSLLGDKAALTLSGAQPEDEAEYYCALWYSNHWVFGGGTKVTVL[human IgG1 Fc with C220S L234A L235A P329A T366W (EU numbers) cut from this listing]

molecular target: T1, CD3εδ complex protein (human; alpaca, UniProt P07766 23-126; P04234 22-105); experiment: ELISA, CD3 complex immobilized
T1 construct: they are not part of the secreted protein; also called human CD3; CD386 complex protein
Method in brief: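 Bispecific anti-TSPAN8/anti-CD3 antibodies bound to immobilized CD3εδ complex protein in ELISA, detected with HRP anti-human IgG Fc and TMB absorbance. EC50 from a four-parameter variable-slope fit, top fixed at plate maximum and bottom at blank; reference antibody averaged across plates.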

Sequence of UniProt P07766 (P07766 23-126 limits assumed, stated change not applied, form in doubt, chain 1 of 2): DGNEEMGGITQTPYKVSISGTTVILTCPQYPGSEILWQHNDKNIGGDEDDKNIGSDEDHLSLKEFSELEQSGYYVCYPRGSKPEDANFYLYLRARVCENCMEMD
Sequence of UniProt P07766 (P04234 22-105 limits assumed, stated change not applied, form in doubt, chain 2 of 2, further chain): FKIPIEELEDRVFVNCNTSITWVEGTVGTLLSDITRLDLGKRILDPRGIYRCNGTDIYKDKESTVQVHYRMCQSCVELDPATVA

| Binder | EC50 |
| --- | --- |
| B1 | 0.358 µg/mL |
| B2 | 0.09 µg/mL |
| B3 | 0.0232 µg/mL |
| B4 | 0.24 µg/mL |
| B5 | 0.0458 µg/mL |
| B6 | 0.242 µg/mL |
